The chains are these.
T1: UNK ZnF1-3 (human, UniProt Q9C0B0 31-174)
T1 sequence: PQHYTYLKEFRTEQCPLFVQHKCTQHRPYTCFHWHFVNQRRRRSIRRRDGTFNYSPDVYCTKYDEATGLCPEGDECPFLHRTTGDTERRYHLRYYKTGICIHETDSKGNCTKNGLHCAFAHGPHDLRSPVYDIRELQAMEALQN

B1: 47180648_47180768_1381_ncRNA_ENSMUSG00000021377_ENSMUST00000138401|mouse|control|control (ssRNA)
RNA: GGGAGUUCUACAGUCCGACGAUCUCCCAGUUUUUGAAGCUGUGAUGUGUUUAUCCUCAUUAUAAAAUUUCUAUGACACUUAGAGUUAACACAACCACAUUGAUGACACUUUGAGGGCAAAGCAGAACUGGACAGUCCUCAGUGCAACAGAGGAUUGAGCAUCA
B2: chr1:202722107:202722108:-_ENSG00000117139_ENST00000367264|hu_hu|FALSE|FALSE (ssRNA)
RNA: GGGAGUUCUACAGUCCGACGAUCCAUGAUGGUCACAAGCUGAUGGAGGAGAUCCGGCUGGGACACAAAGAGUUCUGGAGCUAGUUUCUUCAUUACAUUUUCUAGCUGCUCAGCAGCAUACCCUGGGACUCCAUACCAGGUUUUCAACAGAGGAUUGAGCAUCA
B3: chr16:45382771:45382772:-_ENSMUSG00000022661_ENSMUST00000163230|mus_mus|mus_mus_mus_hu_True|48_68 (ssRNA)
RNA: GGGAGUUCUACAGUCCGACGAUCCUGGGUCAUGUUAUAAGACAAAUGGACAGGGAGGGCAUGCUUCUGUAAAGAUGUGAGCUAUUGACUAAGACUAACAAUAUUUAUCUAGCUAUAAAAAUAAGUUAAAUGAAUAAGUUAAGACAACAGAGGAUUGAGCAUCA
B4: chr6:128383251:128383252:-_ENSMUSG00000030357_ENSMUST00000032508|mus_hu|FALSE|FALSE (ssRNA)
RNA: GGGAGUUCUACAGUCCGACGAUCGUUGAGGUGAGAGGCCAGUCGAAGGGCCUGUGCUUUCUGUGCUUCCUCAUUGGAAAAACUAGACUCAUAUUCCAGCCAAGACACGAUCUUCUUAUACUGUAGUAAAGCUUGCUUGUAUUUCAACAGAGGAUUGAGCAUCA
B5: 87333194_87339485_488_3pUTR_ENSMUSG00000003382_ENSMUST00000170036|mouse|control|control (ssRNA)
RNA: GGGAGUUCUACAGUCCGACGAUCAUGGAACCGGGAGGAGGCUGUUGGCACUGGUGGCGCACUCUGAGGAACCACACCACUCGAGCGAAUGUUGAUGAACGGGUAGUUGGGCAUCACGAGCUUGUUGAAGUUAAACUUGUAAGUCAACAGAGGAUUGAGCAUCA
B6: chr19:10591827:10591828:-_ENSMUSG00000024668_ENSMUST00000025570|mus_hu|FALSE|FALSE (ssRNA)
RNA: GGGAGUUCUACAGUCCGACGAUCUUCAAUCAUGUCCUUUUGGGAAUCUGUUGGGCUGUCACCUCUGUAGAAGCGUCUGAAUGAUGUCACACUGAGCAAAGGAGACAAUAGGCUGUGCCUUGACAGAGCAAGCAUCAGCGACGACAACAGAGGAUUGAGCAUCA
B7: 131456618_131456738_1314_CDS_ENSMUSG00000028911_ENSMUST00000053819|mouse|control|control (ssRNA)
RNA: GGGAGUUCUACAGUCCGACGAUCUGACACCGAGCGGGACGGUGACCGGGAGUGGUCGGUGUCCUUCUUCUUCUUGCUGCUGCUGCUACUGACUUUGCUGUCCCGCUUGCUGCUGUGUUUUCGGCUGCGCUCGCUCUUGCUGCGCAACAGAGGAUUGAGCAUCA
B8: chr2:232320318:232320319:-_ENSG00000115053_ENST00000322723|hu_mus|motif|central (ssRNA)
RNA: GGGAGUUCUACAGUCCGACGAUCACUAUUAAAGUCUACAAAACCAAACCCUUUGGAAGAACCAGUUUCCCGAUCAGUGACGGUUCUUGCACGAACAGAGCCCUCAAAUGAUUCUUUUAAGGUCUCUUCAGUGGUAUCCUCAGACAACAGAGGAUUGAGCAUCA
B9: 56975252_56975372_1549_3pUTR_ENSMUSG00000045589_ENSMUST00000053681|mouse|control|control (ssRNA)
RNA: GGGAGUUCUACAGUCCGACGAUCAACCACUCGCUUAUCCCUAGAAUCUCUCCCAUAUUCCCUAUCAACCGUGUGACUAUCUAAAAGCAUUUAUGCGCCACAGAAAAGUUCUCGAGAGCCUGAUGAUACACCGUGACAUCCUAUCAACAGAGGAUUGAGCAUCA
B10: chr5:68553883:68553884:+_ENSG00000134058_ENST00000256443|hu_mus|FALSE|FALSE (ssRNA)
RNA: GGGAGUUCUACAGUCCGACGAUCGCCCUGAAGAGUCAUCAACAUGUAGGCUUUAAUGUGGGAUGGUGUCAGCACAAGGCUGUUAUCCUUUAUAAUAACCUCGAGGUCAGUUUCCAUAAAAUCAAAGACAAGGCUAAUGUUAGACAACAGAGGAUUGAGCAUCA
B11: chr1:163112212:163112213:-_ENSG00000143248_ENST00000313961|hu_hu|hu_hu_hu_mus_False|58_68 (ssRNA)
RNA: GGGAGUUCUACAGUCCGACGAUCUUUUAUUAUCAGUAAGAGUGAGUUACAUACUAGGCAAAGUAUUGAAUACAAAAUUCUAAAGAUAAACACUAUUGGUCCAGAAUUUAAAACUUUAUGAGCGAAGUGCUGGCACAGGACUUACAACAGAGGAUUGAGCAUCA
B12: chrX:140365825:140365826:-_ENSMUSG00000031285_ENSMUST00000033642|mus_hu|FALSE|FALSE (ssRNA)
RNA: GGGAGUUCUACAGUCCGACGAUCCAACCCAUUCAUCCGGGAGCCUCGCAUGUUCCUGGAUGUCUUAUCUCUUUCGUCAAAGUGUCCAAAAUCAAGUUCCAUAUUUUGGUGGAACCUCAGAGACCGGUUUUCUGCUGGUUGGGUCAACAGAGGAUUGAGCAUCA
B13: chr7:141445308:141445309:+_ENSG00000106028_ENST00000265304|hu_hu|hu_hu_hu_mus_False|18_88 (ssRNA)
RNA: GGGAGUUCUACAGUCCGACGAUCUAUGAUUGUUGUUGCUUGCCGCCUCACAUUAUUUUUAUCCAUGUACUCGCCAUAGUCCACUUUCCCUUCCACAAAUAUACGAGCCCCCUUUUUCACAUAUUGAUAUGCCACAUCUCUGAGCAACAGAGGAUUGAGCAUCA
B14: chr16:17484321:17484322:+_ENSMUSG00000006134_ENSMUST00000006293|mus_hu|FALSE|FALSE (ssRNA)
RNA: GGGAGUUCUACAGUCCGACGAUCUUUUGGAGUUUUAGAACAGAAUUCUCUCUUCCUUAAGGUUCACUUCCUGUUGUCCAAAGAAAAGCAAGAUGGCAGCUAAGCCACUGCUUUGUGGAACAGCAAACAUGCAGUAUCUCGCCACAACAGAGGAUUGAGCAUCA
B15: chr2:55561911:55561912:-_ENSG00000115355_ENST00000336838|hu_mus|FALSE|FALSE (ssRNA)
RNA: GGGAGUUCUACAGUCCGACGAUCAUCGAGUUGGGAAUUCUCUUUUUCUAGAGAUUCUAACUGAAAAGUAAGGUUUUUAAAGCUGUCCAAAGUUUUUUUAAAUUUCCUAUUUUCUCUUUCUAGCUCUGAAUUUUCCUGUUCUAACAACAGAGGAUUGAGCAUCA
B16: chr7:135123436:135123437:+_ENSMUSG00000030795_ENSMUST00000077609|mus_hu|FALSE|FALSE (ssRNA)
RNA: GGGAGUUCUACAGUCCGACGAUCGCCUCCACGACCAUUGCCACCACCCCGAUUAAAGUCUGCCCGGCGAGUAGCAAAUGAGACCUUGAUAGGAUUUCCGGAGAAUUCUUUACCAUCAAACCAGUCAAUAGCUGCUUUAGCUGACAACAGAGGAUUGAGCAUCA
B17: chr7:123332509:123332510:-_ENSG00000106299_ENST00000223023|hu_hu|motif|central (ssRNA)
RNA: GGGAGUUCUACAGUCCGACGAUCAGAGCAGGACACUGGCCGACUGUUCUGCUCCACUUUUUUUAGCUGAGCACCCUCUCGGAUUUGAUCUAAAAGAGCUGCUUUGUUUCCUGCAGUAGUUGGAACCUGAUGGUCCCCAUCAGACAACAGAGGAUUGAGCAUCA
B18: chr11:122930651:122930652:-_ENSG00000109971_ENST00000227378|hu_hu|FALSE|FALSE (ssRNA)
RNA: GGGAGUUCUACAGUCCGACGAUCGUUGUCAAAAUCUUCUCCACCCAAGUGGGUGUCUCCAGCUGUAGACUUGACCUCAAAGAUUCCAUCCUCAAUAGUGAGGAUUGACACAUCAAAAGUGCCACCUCCCAGGUCAAAGAUGAGCAACAGAGGAUUGAGCAUCA
B19: chr2:217001844:217001845:+_ENSG00000079246_ENST00000392132|hu_hu|hu_hu_hu_mus_False|18_68 (ssRNA)
RNA: GGGAGUUCUACAGUCCGACGAUCACCAACUUGAGGAUUAGAUCUUUUGUCAUAAGCAUAUCGGACGAUGGCCACCAUGUUUAACUCAUCCAAAGCAUGAACGAGAGAGGAAAGGGCAACUGCAGCUGCCUCAUCAUCCUUUGCCAACAGAGGAUUGAGCAUCA
B20: chr4:142697793:142697794:-_ENSMUSG00000057637_ENSMUST00000105778|mus_mus|motif|central (ssRNA)
RNA: GGGAGUUCUACAGUCCGACGAUCUAGGACAGACUGUGUCAGUGGGGUUGGCGACAGCCAUGAGUCCAUGCUUUCGAGGACGGACUGCAGGGUGCGUAGAAGGAGAAAAUUCCAGUUGAAGAAAUAAAAGAGGGGCACGCCAGACAACAGAGGAUUGAGCAUCA
B21: chrX:140365796:140365797:-_ENSMUSG00000031285_ENSMUST00000033642|mus_mus|mus_mus_mus_hu_False|8_18 (ssRNA)
RNA: GGGAGUUCUACAGUCCGACGAUCCUUCUCAUUACUCAGUGCCUGCAAGGUUCUGGUUCGGUAGAAGCUACAGUGGGCGCUGUGAGUGGGGCUAGGCAACCCAUUCAUCCGGGAGCCUCUCAUAUUUCUAGAUGCUUUAUCUCUCAACAGAGGAUUGAGCAUCA
B22: chr5:92956547:92956548:-_ENSG00000113391_ENST00000395965|hu_mus|FALSE|FALSE (ssRNA)
RNA: GGGAGUUCUACAGUCCGACGAUCCCGCUGAAGCCAUAUUGCUUUGACAGUUGCACUCAUCUAGAAAUAAUGCAAAACGCUAUUUAGACGGACACAUCACGACCCUGCGCUGGAGAAAGAAAGCAAUCUAAUGGGGGCCAGGAGCAACAGAGGAUUGAGCAUCA

This is one part of the list.

The target of the assay is T1, UNK ZnF1-3. The experiment in a line: nsRBNS (natural sequence RNA bind-n-seq); RBNS binding buffer (assumed for nsRBNS): 25 mM Tris pH 7.5, 150 mM KCl, 3 mM MgCl2, 0.01% Triton X-100, 500 ug/ml BSA, 20 U/ml SUPERase-In, 4 C; UNK is unkempt and MSI1 is Musashi-1; names of the RNAs are library labels; protein concentration not given here; high values mean tight binding.
Turning to B1, the binding signal is 0.792 enrichment R.

For B2, the binding signal worked out at 0.946 enrichment R.

The molecule B3 came in with a binding signal of 2.02 enrichment R.

On to B4, for which the binding signal turned out to be 0.763 enrichment R.

B5 showed a binding signal of 1.67 enrichment R.

Molecule B6 registered a binding signal of 1.19 enrichment R.

B7 showed a binding signal of 0.379 enrichment R.

Regarding B8, the binding signal was determined as 0.244 enrichment R.

B9 gave a binding signal of 1.51 enrichment R.

B10 gave a binding signal of 1.23 enrichment R.

The molecule B11 showed a binding signal of 1.33 enrichment R.

As to B12, the binding signal turned out to be 0.573 enrichment R.

With B13, the binding signal came out at 0.921 enrichment R.

For the molecule B14, the binding signal is 0.664 enrichment R.

B15: the binding signal was determined as 0.553 enrichment R.

The molecule B16 had a binding signal of 1.36 enrichment R.

Molecule B17 registered a binding signal of 0.683 enrichment R.

With B18, the binding signal was 1.46 enrichment R.

The molecule B19 showed a binding signal of 1.6 enrichment R.

B20: the binding signal came out at 1.62 enrichment R.

B21 gave a binding signal of 0.673 enrichment R.

Molecule B22 returned a binding signal of 1.3 enrichment R.

For the origin of these results see PMC12136788.
